From PubChem BioAssay AID360 (National Center for Advancing Translational Sciences (NCATS), 2006) come the findings set out here.

Screen size: about 48,000 compounds; about 550 (1.1%) were called active. Another 4% or so got no clear call; they are omitted. Rule as the data show it: active = potency below about 15 µM; inconclusive = mostly about 16 µM to 33 µM; inactive = weaker than that. The list shows a part of the results. Where only a bound is given, the exact number is not on record here.
Potency is read from the fitted curve at half-maximal effect.

The target in this test is Lysosomal acid glucosylceramidase (Homo sapiens) (UniProt P04062). Kind of test: Glucocerebrosidase.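 Also: the screen sought inhibitors.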 As to conditions: purified enzyme, resorufin glucoside fluorescence (screen aimed at inhibitors), 20 min. In short, it runs like this: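 Compounds titrated against 0.2 nM normal enzyme, 30 uM resorufin beta-D-glucopyranoside substrate, citrate/phosphate buffer with taurocholate and tween-20, pH 5.9. Reaction ran 20 min at room temperature; fluorescence (Ex 548/Em 600) gave AC50.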
Chain of UniProt P04062 (P04062 whole entry, looked up): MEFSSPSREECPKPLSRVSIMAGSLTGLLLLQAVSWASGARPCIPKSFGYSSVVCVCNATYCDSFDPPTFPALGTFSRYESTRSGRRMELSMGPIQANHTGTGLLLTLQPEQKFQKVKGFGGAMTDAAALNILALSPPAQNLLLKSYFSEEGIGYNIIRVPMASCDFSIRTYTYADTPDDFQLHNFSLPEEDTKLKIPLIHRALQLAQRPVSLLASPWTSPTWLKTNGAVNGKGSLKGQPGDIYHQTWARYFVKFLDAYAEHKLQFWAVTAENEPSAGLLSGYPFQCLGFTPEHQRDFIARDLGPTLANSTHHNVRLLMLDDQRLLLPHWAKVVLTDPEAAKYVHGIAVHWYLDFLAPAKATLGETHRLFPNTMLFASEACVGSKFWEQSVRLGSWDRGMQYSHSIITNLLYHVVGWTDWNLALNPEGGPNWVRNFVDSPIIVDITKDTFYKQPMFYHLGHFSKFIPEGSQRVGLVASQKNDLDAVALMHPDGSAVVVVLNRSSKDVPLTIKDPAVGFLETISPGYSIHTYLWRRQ
On to `CCn1c(N)c(C(=O)NCC2CCCO2)sc1=S` (stereo unspecified), for which the Potency is inactive: > 76.9 µM. To `Cc1nc(SCc2ccccc2)c(C(F)(F)F)c(=O)[nH]1` belongs inactive: > 76.9 µM; to `Nc1nc(Nc2cccc3ccccc23)nc(C2CCCC2=O)n1` (stereo unspecified), active: 1.52 µM; to `COc1ccccc1NC(=O)CSc1nnc(-c2ccco2)o1`, inactive: > 76.9 µM. For `Nc1nc(-c2cccnc2)nn1S(=O)(=O)c1ccccc1`, the Potency was inactive: > 76.9 µM. The figure for `Cc1cc(NC(=O)CSc2nnc(-c3ccco3)n2Cc2ccco2)no1` is inactive: > 76.9 µM; for `O=C(Nc1ccc(-c2nc3ncccc3o2)cc1)c1ccc(Br)o1` it is inactive: > 76.9 µM. The figure for `O=C(Nc1nncs1)c1ccccc1NS(=O)(=O)c1cccs1` is inactive: > 15.4 µM. In the case of `O=C(Cn1ncc2c(=O)oc3ccccc3c21)Nc1nc2ccccc2s1`, the Potency was inactive: > 76.9 µM. The figure for `COCCNC(=O)C(c1ccc(C)cc1)N(C(=O)CCC(=O)Nc1ccccn1)C1CCCC1` (stereo unspecified) is inactive: > 76.9 µM; for `COc1cc(C2c3c(oc4ccccc4c3=O)C(=O)N2Cc2cccnc2)cc(OC)c1OC` (stereo unspecified) it is inactive: > 76.9 µM. As for `Cc1ccc(NC(=O)CCCCCC2NC(=O)NC2C)cc1` (stereo unspecified), the Potency is inactive: > 76.9 µM.

On to `Cc1cc(C)c(NC(=O)CCCOC(=O)C2=COCCO2)c(C)c1`, for which the Potency was inactive: > 76.9 µM. For the compound `Cn1c(=O)n(CC(=O)Nc2cccnc2)c2ccccc21`, the Potency was inactive: > 76.9 µM. With `CCCC(=O)Nc1ccc(S(=O)(=O)Nc2cc(C)nc(C)n2)cc1`, the Potency is inactive: > 76.9 µM. The figure for `Cc1ccc(C(=O)N2CCOCC2)cc1Cl` is inactive: > 76.9 µM; for `CCOC(=O)c1cc(=O)n2[nH]c(-c3ccc(C)cc3)cc2n1` it is inactive: > 76.9 µM; for `Cc1ccc(-n2c(-c3ccncc3)nnc2-c2ccco2)cc1` it is inactive: > 76.9 µM. To `CCOC(=O)N1CCN(CCC(=O)c2ccc(Cl)cc2)CC1` belongs inactive: > 76.9 µM; to `O=c1cc(-c2ccccc2)c2c([nH]1)CCCC2`, inactive: > 76.9 µM; to `N=c1n(CCN2CCCC2)c2ccccc2n1CC(O)c1ccco1` (stereo unspecified), inactive: > 76.9 µM. To `Cc1cc(Cl)ccc1OCCCC(=O)N1CCOCC1` belongs inactive: > 76.9 µM; to `CS(=O)(=O)N1CCCC(C(=O)NCc2ccc(F)cc2Cl)C1` (stereo unspecified), inactive: > 76.9 µM; to `Cc1[nH]n(-c2ccccc2)c(=O)c1/C=N/c1ccccn1`, inactive: > 76.9 µM.

Turning to `Cc1ccc2nc3sc(C(=O)N4CCOCC4)c(N)c3cc2c1`, the Potency is inactive: > 76.9 µM.

Regarding `CCOC(=O)C1CCN(CC(O)COc2ccc(C(=O)CC)cc2)CC1` (stereo unspecified), the Potency was inactive: > 76.9 µM.
